Data published in patent US20250340652A1 (CHENGDU DI AO PHARMACEUTICAL GROUP, published 2025).

Assays:
[1] = target: T1, CC1H, major antigenic region of PLA2R (human, UniProt Q13018 21-367); experiment: indirect ELISA, CC1h coated at 2 ug/mL, anti-human IgG Fc HRP
T1 construct: Secreted from CHO-S cells, purified on Ni column; also called CCIh
Method: 30 μL of CC1h (2 μg/mL, diluted with 1*PBS) was added to the reaction wells of the ELISA plate, and the plate was sealed and incubated at 4° C. overnight. The plate was washed with PBST for 3 times, and the liquid in the wells was discarded. 5% PBSM was added to block the ELISA plate at room temperature for 2 hours. The plate was washed with PBST for 3 times by adding 30 μL of Abs (diluted with 1*PBS) to each well of the ELISA plate, and the plate was incubated at room temperature for 60 min. The plate was washed with PBST for 3 times, 30 μL of anti-human IgG Fc HRP (diluted with 1% PBSM at a ratio of 1:8000) was added to each well, and incubated at room temperature for 60 min. TMB was added and the reaction was stopped with 2M blocking solution and the OD value was detected at 450 nm. Recombinant Ipilimumab (Sanyou Biopharmaceuticals Co., Ltd.) was used as a negative control. The test results were illustrated in Table 2 as well as FIG. 4 and FIG. 5.

CC1H-Biotin = target: T2, CC1H-Biotin (human, UniProt Q13018 21-367, biotin by EZ-Link Sulfo-NHS-LC-Biotin, 1.80 mol Biotin/mol protein; sites not given); experiment: BLI (Octet N1), CC1H-Biotin on SA sensor, antibody 76.6-8.5 nM
T2 construct: also called biotin-labeled CC1H
Method: Sartorius Octet® N1 molecular interaction instrument was used, the SA sensor (Sartorius, Octet® Streptavidin (SA) Biosensor, 18-5019) was selected.
The sensor was immersed in a PBSTB buffer (0.02% Tween-20 and 0.1% BSA were added in the PBS buffer) to be pre-wetted for 10 min or longer, and loaded onto the molecular interaction instrument.
The association constant (Ka), dissociation constant (Kd), and affinity constant (KD) were calculated and illustrated in Table 5 for details.

EC50 [1] | Kd (CC1H-Biotin) | koff (CC1H-Biotin) | kon (CC1H-Biotin) | Binder
3.94 ng/mL | 0.104 nM | 7.86e-05 s⁻¹ | 755000 M⁻¹ s⁻¹ | A2 (antibody, human IgG4, kappa, also called P59365) heavy: QVQLQQSGPGLVKPSQTLSLTCTVSGGSISSGGYYWSWIRQHPGKGLEWIGYIYYSGSTYYNPSLKSRVTISVDTSKNQFSLKLSSVTAADTAVYYCARQRRANGYSSSWEFDYWGQGTLVTVSSASTKGPSVFPLAPCSRSTSESTAALGCLVKDYFPEPVTVSWNSGALTSGVHTFPAVLQSSGLYSLSSVVTVPSSSLGTKTYTCNVDHKPSNTKVDKRV[human IgG4 Fc not shown] light: DIVMTQSPSSLSASVGDRVTITCRASQGISSALAWYQQKPGKAPKLLIYDASSLESGVPSRFSGSGSGTDFTLTISSLQPEDFATYYCQQFNSYPLTFGGGTKVEIKRTVAAPSVFIFPPSDEQLKSGTASVVCLLNNFYPREAKVQWKVDNALQSGNSQESVTEQDSKDSTYSLSSTLTLSKADYEKHKVYACEVTHQGLSSPVTKSFNRGEC
5.66 ng/mL | < 0.001 nM | < 1e-07 s⁻¹ | 872000 M⁻¹ s⁻¹ | A2 (IgG4SP) (antibody, IgG4SP (S228P in the hinge, already in the heavy chain entry); also called A2SP; P62295) heavy: QVQLQQSGPGLVKPSQTLSLTCTVSGGSISSGGYYWSWIRQHPGKGLEWIGYIYYSGSTYYNPSLKSRVTISVDTSKNQFSLKLSSVTAADTAVYYCARQRRANGYSSSWEFDYWGQGTLVTVSSASTKGPSVFPLAPCSRSTSESTAALGCLVKDYFPEPVTVSWNSGALTSGVHTFPAVLQSSGLYSLSSVVTVPSSSLGTKTYTCNVDHKPSNTKVDKRV[human IgG4 Fc with S228P (EU numbers) not shown] light: DIVMTQSPSSLSASVGDRVTITCRASQGISSALAWYQQKPGKAPKLLIYDASSLESGVPSRFSGSGSGTDFTLTISSLQPEDFATYYCQQFNSYPLTFGGGTKVEIKRTVAAPSVFIFPPSDEQLKSGTASVVCLLNNFYPREAKVQWKVDNALQSGNSQESVTEQDSKDSTYSLSSTLTLSKADYEKHKVYACEVTHQGLSSPVTKSFNRGEC
6.4 ng/mL | 2.04 nM | 0.000395 s⁻¹ | 194000 M⁻¹ s⁻¹ | A187 (antibody, human IgG4, kappa, also called […]) heavy: QVQLLDSGGGLVKPGGSLRLSCAASGFTFSSYGMHWVRQAPGKGLEWVAFISNDGSNKYYADSVKGRFTISRDNSKNTLYLQMNSLRAEDTAVYYCARLLRGPWNFDLWGRGTLVTVSSASTKGPSVFPLAPCSRSTSESTAALGCLVKDYFPEPVTVSWNSGALTSGVHTFPAVLQSSGLYSLSSVVTVPSSSLGTKTYTCNVDHKPSNTKVDKRV[human IgG4 Fc not shown] light: [about 100 residues not shown][about 120 residues not shown]
11.5 ng/mL | 1.36 nM | 0.000227 s⁻¹ | 167000 M⁻¹ s⁻¹ | A187 (IgG4SP) (antibody, IgG4SP (S228P in the hinge, already in the heavy chain entry); also called A187SP; […]) heavy: QVQLLDSGGGLVKPGGSLRLSCAASGFTFSSYGMHWVRQAPGKGLEWVAFISNDGSNKYYADSVKGRFTISRDNSKNTLYLQMNSLRAEDTAVYYCARLLRGPWNFDLWGRGTLVTVSSASTKGPSVFPLAPCSRSTSESTAALGCLVKDYFPEPVTVSWNSGALTSGVHTFPAVLQSSGLYSLSSVVTVPSSSLGTKTYTCNVDHKPSNTKVDKRV[human IgG4 Fc with S228P (EU numbers) not shown] light: [about 100 residues not shown][about 120 residues not shown]
8.81 ng/mL | 0.455 nM | 0.000263 s⁻¹ | 577000 M⁻¹ s⁻¹ | A5 (antibody, human IgG4, kappa, also called P59366) heavy: QVQLVQSGGGVVQPGNSLRLSCVASGFTFSRYTIHWVRQAPGKGLEWVAVISYDGSNKYYADSVKGRFTISRDNSKNTLYLQMNSLRAEDTAVYYCARGGPTPDWGQGTLVTVSSASTKGPSVFPLAPCSRSTSESTAALGCLVKDYFPEPVTVSWNSGALTSGVHTFPAVLQSSGLYSLSSVVTVPSSSLGTKTYTCNVDHKPSNTKVDKRV[human IgG4 Fc not shown] light: DIQMTQSPSSLSASVGDRVTITCRASQGIRNYLAWYQQKPGKVPRLLIFAASTLQSGVPSRFSGSGSGTDFTLTISSLQPEDVATYYCQKYYSAPFTFGPGTKVDIKRTVAAPSVFIFPPSDEQLKSGTASVVCLLNNFYPREAKVQWKVDNALQSGNSQESVTEQDSKDSTYSLSSTLTLSKADYEKHKVYACEVTHQGLSSPVTKSFNRGEC
11.2 ng/mL | 1.56 nM | 0.000475 s⁻¹ | 304000 M⁻¹ s⁻¹ | A5 (IgG4SP) (antibody, IgG4SP (S228P in the hinge, already in the heavy chain entry); also called A5SP; P62296) heavy: QVQLVQSGGGVVQPGNSLRLSCVASGFTFSRYTIHWVRQAPGKGLEWVAVISYDGSNKYYADSVKGRFTISRDNSKNTLYLQMNSLRAEDTAVYYCARGGPTPDWGQGTLVTVSSASTKGPSVFPLAPCSRSTSESTAALGCLVKDYFPEPVTVSWNSGALTSGVHTFPAVLQSSGLYSLSSVVTVPSSSLGTKTYTCNVDHKPSNTKVDKRV[human IgG4 Fc with S228P (EU numbers) not shown] light: DIQMTQSPSSLSASVGDRVTITCRASQGIRNYLAWYQQKPGKVPRLLIFAASTLQSGVPSRFSGSGSGTDFTLTISSLQPEDVATYYCQKYYSAPFTFGPGTKVDIKRTVAAPSVFIFPPSDEQLKSGTASVVCLLNNFYPREAKVQWKVDNALQSGNSQESVTEQDSKDSTYSLSSTLTLSKADYEKHKVYACEVTHQGLSSPVTKSFNRGEC
